Experimental data from patent US7604949B2, “Methods and compositions that affect melanogenesis” (New York University, priority 1999, dated 2009).

Legend:
melan-a melanocytes [1] = experiment: Melanin production (absorbance 490 nm per protein) in melan-a melanocytes; type: cell-based, mouse
Experimental: Immediately before using the medium, tetradecanoyl phorbol acetate (TPA) was added at 200 nM. Cells were seeded in T-25 flasks with 4×10^4 cells/ml×4.5 ml/flask (10-20% confluent) and were grown at 37° C. with 5% CO2. Twenty-four hours later, a compound to be tested (diluted in 0.5 ml media) was added to the media. Forty-eight hours after the addition of drug, both the media and drug were changed. Cells were harvested after an additional 48 or 72 hours (100% confluent). In harvesting the cells, the reagents and cells were kept at 4° C. Briefly, the media was removed from the cells, and one milliliter of media was reserved if needed for the tyrosinase assay. The cells were then rinsed with approximately 500 μl cold 1× phosphate buffered saline (PBS) until the PBS rinse was clear. Cold extraction buffer (50 mM Tris, (pH 7.5), 2 mM EDTA (pH 7.8), 150 mM NACE, and 1% Triton x-100 (Sigma, St. Louis, Mo.), (500 μl) was added, and the sample was allowed to incubate on ice for a few minutes or until cells began to peel off the bottom of the flask. After tapping the flask to encourage the cells to fall off, the 500 μl of the extraction buffer/cells were removed and placed in a microfuge tube. After spinning the sample for 5 minutes at 14,000×g at 4° C., the supernatant was removed and saved in a microfuge tube for the protein assay (and tyrosinase assay, if necessary). The cell pellets were either stored at 4° C. overnight or at −20° C. for longer periods before assaying for melanin. […] The sample was vortexed and allowed to stand for approximately 10 minutes or until precipitated protein was visible in the solvent. If necessary, pellets were gently crushed with a microfuge tube pestle. Care was taken not to break the pellet(s) into many small pieces which would have made removing the solvent (and leaving melanin behind) difficult. Using a glass pipette, the solvent/protein was removed, being careful not to remove melanin. The extraction steps were repeated, and the pellets allowed to dry. Next, 250 μl of 2 N NaOH in 20% dimethylsulfoxide (DMSO) was added to each microfuge tube. The samples were heated at 66-70° C. until the melanin was completely dissolved. For each sample tested, 200 μl of the NaOH/melanin solution was transferred to a 96-well plate. 2 N NaOH in 20% DMSO was used as a blank, and the samples were read at a wavelength of 490 nm. The data were reported as absorbance of melanin per protein calculated for the total sample.

melan-a melanocytes [2] = conditions: melan-a cells, 48 hours, low tyrosine, vs untreated

Row | SMILES | levels of tyrosinase activity secreted to the incubation medium (melan-a melanocytes [2]; 10 micromolar compound) | decrease in pigmentation (melan-a melanocytes [1]; 20 μM) [%] | also measured
1 | CCN(CC)CCO[C@H]1CC[C@@]2(C)C(=CC[C@@H]3[C@@H]2CC[C@]2(C)C(=O)CC[C@@H]32)C1 [U18666A, HCl] | – | – | decrease in pigmentation as compared to control (melan-a melanocytes [1]; 2.5 μM): 60%; reduction of the effect of IBMX alone on pigment production (melan-a melanocytes [1]; 2.5 μM U18666A combined with 10 μM IBMX): 75%
2 | CN1[C@@H]2CC[C@H]1C[C@@H](OC(c1ccccc1)c1ccccc1)C2 [benztropine] | did not alter | – | –
3 | CN(C)CCCN1c2ccccc2CCc2ccccc21 [imipramine, 10,11-dihydro-n,n-dimethyl-5H-dibenz[b,f]azepine-5-propanamine] | significantly increased | 33 | –
4 | O=C(O)/C=C\C(=O)O.O=[N+]([O-])c1ccc2nc(N3CCNCC3)ccc2c1 [nitroquipazine, 6-nitro-2-(1-piperazinyl)-quinoline maleate] | – | – | levels of tyrosinase activity secreted to the incubation medium (melan-a melanocytes [2]; 30 micromolar compound): significantly increased
5 | CC(=O)[C@H]1CC[C@H]2[C@@H]3CCC4=CC(=O)CC[C@]4(C)[C@H]3CC[C@]12C [progesterone] | – | 52 | decrease in pigmentation (melan-a melanocytes [1]; 10 μM): 45%

Counter-ions that a name gives are not always drawn. Like-named read-outs stand apart in the source and are kept apart here.
